Data: PubChem BioAssay AID1468 (National Center for Advancing Translational Sciences (NCATS), 2008)
Several values for one entry are separate records, joined by “and”; a condition that tells them apart may be missing. Equal values may be shown once. Screen size: about 280,000 compounds; about 1,100 (0.39%) were called active. This list was built around the results that the source calls inconclusive (neither active nor inactive); the mix of calls is not that of the screen. Calls follow the shape of the dose curve; as a rule, active = well fitted inhibition curve with a large enough effect; inconclusive = small, poorly fitted or top-dose-only effect, or effect the other way; inactive = flat fitted curve, though single readings scatter. Potencies beside an inconclusive call are fits to weak or partial responses and may not hold up.

biological target: Microtubule-associated protein tau (Homo sapiens) (UniProt P10636); experiment: qHTS for Inhibitors of Tau Fibril Formation, Fluorescence Polarization; conditions: K18 P301L tau heparin fibrillization, Alexa594 FP, 6 h; series mostly up to 57.7 µM; activity, negative = inhibition: at the top concentration; also: nearly all actives have a fitted effect of over 55% in size
UniProt P10636, sequence (P10636 whole entry, looked up): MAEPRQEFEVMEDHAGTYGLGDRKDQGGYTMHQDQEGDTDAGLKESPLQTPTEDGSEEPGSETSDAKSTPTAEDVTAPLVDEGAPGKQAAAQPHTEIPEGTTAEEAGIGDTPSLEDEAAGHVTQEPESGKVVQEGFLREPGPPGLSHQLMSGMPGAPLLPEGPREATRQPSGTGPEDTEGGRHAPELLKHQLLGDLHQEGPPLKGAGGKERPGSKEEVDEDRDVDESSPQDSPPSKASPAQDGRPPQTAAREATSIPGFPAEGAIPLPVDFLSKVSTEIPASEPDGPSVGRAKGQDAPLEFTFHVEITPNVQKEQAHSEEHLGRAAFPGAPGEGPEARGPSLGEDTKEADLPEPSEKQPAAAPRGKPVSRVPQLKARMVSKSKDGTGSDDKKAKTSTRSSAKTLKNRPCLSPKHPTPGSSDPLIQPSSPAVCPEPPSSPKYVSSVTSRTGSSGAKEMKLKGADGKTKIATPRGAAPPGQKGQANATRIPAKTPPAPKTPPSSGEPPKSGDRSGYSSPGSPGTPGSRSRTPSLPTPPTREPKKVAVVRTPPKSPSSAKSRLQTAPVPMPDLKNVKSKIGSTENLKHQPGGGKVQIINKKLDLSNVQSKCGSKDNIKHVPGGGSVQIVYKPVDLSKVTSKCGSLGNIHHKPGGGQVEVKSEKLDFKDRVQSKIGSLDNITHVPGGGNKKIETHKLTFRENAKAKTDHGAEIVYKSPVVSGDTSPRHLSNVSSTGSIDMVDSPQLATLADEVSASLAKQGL
From the text: NIH Molecular Libraries Probe Production Network [MLPCN]
NIH Chemical Genomics Center [NCGC]
Assay Provider: Carlo Ballatore, University of Pennsylvania
The microtubule-associated protein tau is an abundant protein in the axons of neurons that stabilizes microtubules. With its ability to modulate microtubule dynamics, tau contributes directly or indirectly, to key structural and regulatory cellular functions. Particularly important is the influence tau exerts on axonal transport, which allows signaling molecules, trophic factors and other essential cellular constituents to travel along the axons. Under pathological conditions, tau becomes sequestered into insoluble aggregates called neurofibrillary tangles. This phenomenon is believed to have pathological consequences by promoting axonal transport deficits that ultimately lead to synaptic dysfunction and neuronal loss. To identify inhibitors of tau aggregation, a heparin-induced tau fibril formation assay was used that employed a recombinantly expressed fragment of tau, K18 (Q242-E372), bearing a P301L mutation (Gustke et al. 1994; Hong et al. 1998).
Gustke, N., B. Trinczek, et al. (1994). "Domains of tau protein and interactions with microtubules." Biochemistry 33(32): 9511-22.
Hong, M., V. Zhukareva, et al. (1998).
Li, W. and V. M. Lee (2006). "Characterization of two VQIXXK motifs for tau fibrillization in vitro." Biochemistry 45(51): 15692-701.
von Bergen, M., S. Barghorn, et al. (2001). "Mutations of tau protein in frontotemporal dementia promote aggregation of paired helical filaments by enhancing local beta-structure." J Biol Chem 276(51): 48165-74.
NCGC Assay Protocol Summary:
For screening, 2 uL/well human K18 P301L (15 uM unlabeled and 0.24 uM Alexa 594-labeled tau final concentrations) in reagent buffer (100 mM sodium acetate pH 7) was dispensed into black solid 1536-well plates (Grenier) using a solenoid-based dispenser. Following transfer of 23 nL compound or DMSO vehicle by a pin tool, 2 uL/well heparin (20 uM final concentration) in reagent buffer was added and the plate centrifuged 15 s at 1000 RPM. Plates were incubated 6 hr at 37 C and then 1 uL/well ThT (30 uM final concentration) was added. After a 1 hr ambient incubation, the plates were read by an Envision (Perkin Elmer) to monitor Alexa 594 FP (555 nm excitation and 632 nm emission).
Keywords: NIH Roadmap, MLPCN, MLI, MLSMR, NCGC, qHTS, tau, tauopathies, Alzheimer's disease, fibril, neurodegeneration, aggregation
% is scaled to controls: 0 for no effect and ±100 for the full control effect; potency is read from the fitted curve at half-maximal effect; tags tell the direction and shape of the fitted curve.

SMILES | Potency | activity, negative = inhibition
N[C@@H](Cc1c[nH]c2ccccc12)c1nnc(SCc2ccc(F)cc2)o1 | inconclusive: 22.4 µM [activator, single point] | –
CCOC(=O)c1ccc(NC(=O)CSc2cc(=O)n(CC)c3ccccc23)cc1 | inconclusive: 10 µM [inhibitor, partial curve] | –
CCN1C(=O)N(CC)C(=O)C2(Cc3ccccc3N3CCN(c4ccccc4)CC32)C1=O (configuration not stated) | – | inactive: -11.6%
O=C1NC(=O)[C@]2(Cc3ccccc3N3CCN(c4ccccc4)CC32)C(=O)N1Cc1ccccc1 (some centres not stated) | inconclusive: 39.8 µM [inhibitor, single point] | –
COc1ccc2c(c1)NP(=S)(Oc1ccccc1)N2 (configuration not stated) | inconclusive: 6.31 µM [inhibitor, partial curve] | –
CCC(C)OC(=O)c1c(N)n(Cc2cccs2)c2nc3ccccc3nc12 (configuration not stated) | inconclusive: 31.6 µM [inhibitor, partial curve] | –
O=C1NC(=S)N(c2ccccc2F)C(=O)/C1=C\c1cccs1 | – | inactive: 10.9%
COc1ccc(N/N=C/c2c(O)n(-c3ccc(C)c(C)c3)c(=O)[nH]c2=O)cc1 | inconclusive: 31.6 µM [inhibitor, single point] | –
CC(=O)OCOCC(=O)OCO[P+](=O)C(OCOC(C)=O)c1cc([N+](=O)[O-])ccc1Oc1ccc(Br)cc1 (configuration not stated) | – | inactive: -5.7%
CN1C(=O)C(Cc2cccc3ccccc23)C(=O)N(C)C1=O | inconclusive: 17.8 µM [inhibitor, partial curve] | –
FC(F)(F)c1cccc(N2CCNCC2)c1 | inconclusive: 3.55 µM [inhibitor, single point] | –
COc1ccc(N2C(=O)NC(=O)/C(=C/c3ccc4c(c3)Cc3ccccc3-4)C2=O)cc1 | inconclusive: 17.8 µM [inhibitor, partial curve] | –
CN1C(=O)N(C)C(=O)C2(Cc3cc(N)ccc3N3CCN(c4ccccc4F)CC32)C1=O (configuration not stated) | inconclusive: 28.2 µM [inhibitor, partial curve] | –
Cc1ccc(Cn2cccc(C(=O)Nc3ccc4c(c3)OCO4)c2=O)cc1 | inconclusive: 35.5 µM [inhibitor, single point] | –
CC(C)N1CCN(c2ccc(O)cc2)CC1 | inconclusive: 25.1 µM [inhibitor, single point] | –
CC(=O)OC1C[C@@]2(C)C(c3ccoc3)C[C@H]3O[C@@]32[C@@]2(C)C(=O)C(O)=C3C(C)(C)C(=O)C=C[C@]3(C)C12 (some centres not stated) | inconclusive: 7.94 µM [inhibitor, full curve] | –
CCCNC(=O)c1cnn2c(C)c(Cc3c(C)cc(C)cc3C)c(C)nc12 | inconclusive: 44.7 µM [inhibitor, single point] | –
COc1cccc(NC(=O)Cn2cc(C(=O)c3ccccc3)c3ccccc32)c1 | inconclusive: 28.2 µM [inhibitor, partial curve] | –
Cc1ccccc1N1C(=O)NC(=O)/C(=C\c2cc(Br)c(N3CCOCC3)o2)C1=O | inconclusive: 15.8 µM [inhibitor, partial curve] | –
CC(=NCC1CCCO1)c1c(O)n(Cc2ccccc2)c(=O)[nH]c1=O (configuration not stated) | inconclusive: 3.55 µM [inhibitor, single point] | –
CC(=O)c1c(O)c(C)c(O)c(Cc2c(O)c3c(c(C(=O)/C=C/c4ccccc4)c2O)OC(C)(C)C=C3)c1O | inconclusive: 25.1 µM [inhibitor, partial curve] and inconclusive: 11.2 µM [inhibitor, partial curve] | –

SMILES | Potency | activity, negative = inhibition
COc1ccccc1N1CCNCC1 | inconclusive: 2.82 µM [inhibitor, single point] | –
CN=C(SCC(=O)c1cccc(Cl)c1)c1c(O)n(C)c(=O)n(C)c1=O | inconclusive: 0.0251 µM [inhibitor, full curve, poor fit] | –
Cc1cccc(-n2c(O)c(/C=N/Nc3nc4c(c(=O)n(C)c(=O)n4C)n3C)c(=O)[nH]c2=S)c1 | inconclusive: 3.98 µM [inhibitor, full curve, poor fit] | –
CCOc1ccc(N2C(=O)NC(=O)/C(=C\c3cc(OC)c(OC)cc3[N+](=O)[O-])C2=O)cc1 | inconclusive: 39.8 µM [inhibitor, single point] | –
CC(C)C12CN3CC(C(C)C)(CN(C1)C3c1ccccn1)C2=O (configuration not stated) | – | inactive: -1.7%
CCC(=O)Nc1ccc(C(=O)OCc2ccccc2Cl)cc1 | inconclusive: 28.2 µM [inhibitor, partial curve] | –
COc1ccc(/C=N/N=C(/N)N[N+](=O)[O-])c(OC)c1 | inconclusive: 1 µM [inhibitor, full curve, poor fit] | –
CCOC(=O)N(c1ccccc1)P1(=S)OCCO1 | – | inactive: -12.2%
O=C(c1cc(C(=O)NCc2ccccc2)c(=O)n(Cc2ccccc2)c1)c1cc(Cl)ccc1O | inconclusive: 39.8 µM [inhibitor, single point] | –
O=C(c1c[nH]cc1-c1ccccc1)c1cccc2ccccc12 | inconclusive: 31.6 µM [inhibitor, single point] | –
CCOC(=O)c1c(C)[nH]c(C)c1S(=O)(=O)N1CCC(C(=O)N2CCN(c3ccc(Cl)cc3)CC2)CC1 | inconclusive: 39.8 µM [activator, single point] | –
Cc1ccccc1-n1c(O)c(/C=N/NC(=O)c2ccncc2)c(=O)[nH]c1=O | – | inactive: -6.62%
CN(C)c1ccc(/C=C/C=C2/C(=O)NC(=O)N(c3ccccc3)C2=O)cc1 | inconclusive: 0.447 µM [activator, full curve] | –
Cc1ccc(CNC(=O)c2ccccc2NC(=O)c2nsc3ccccc23)cc1 | inconclusive: 12.6 µM [inhibitor, partial curve] | –
CCOc1ccc(-n2c(O)c(N=Nc3ccc([N+](=O)[O-])cc3)c(=O)[nH]c2=O)cc1 | – | inactive: 9.55%
CN1CCN(c2ccc(N)cc2)CC1 | inconclusive: 22.4 µM [inhibitor, partial curve] | –
CCN1C(=O)/C(=C/c2ccc3c(c2)CCN3CCCCl)C(=O)NC1=S | inconclusive: 39.8 µM [inhibitor, single point] | –
CNc1ccc2oc(C[C@@H]3OC4(CC[C@@H]3C)O[C@H]([C@@H](C)C(=O)c3ccc[nH]3)[C@H](C)C[C@H]4C)nc2c1C(=O)O (some centres not stated) | inconclusive: 22.4 µM [inhibitor, partial curve] | –
CCCn1c(C)c(C(=O)c2cccc3ccccc23)c2ccccc21 | inconclusive: 44.7 µM [inhibitor, single point] | –
Cc1cccc2c3c(ccc12)C1=C(C(=O)C3=O)C(C)CO1 (configuration not stated) | inconclusive: 28.2 µM [inhibitor, partial curve] | –
O=C1NC(=S)NC(=O)C12C(c1ccc(F)cc1)NC(=S)NC2c1ccc(F)cc1 (configuration not stated) | – | inactive: 7.45%

SMILES | Potency | activity, negative = inhibition
C/C(=N\NC(=S)Nc1ccccc1)c1c(O)n(C)c(=O)n(C)c1=O | inconclusive: 39.8 µM [inhibitor, single point] | –
Cc1cccc(CN2CC=C(c3noc(CCC(=O)Nc4ccc(C)c(F)c4)n3)CC2)c1 | inconclusive: 2.51 µM [inhibitor, partial curve, poor fit] | –
Cc1ccc(-n2sc3ccccc3c2=O)cc1 | inconclusive: 28.2 µM [inhibitor, single point] | –
COC(=O)[C@@H]1[C@@H](C(=O)OC)C2(c3ccccc3-c3ccccc32)N(c2ccc(Cl)cc2)N1C#N | inconclusive: 15.8 µM [inhibitor, partial curve] | –
O=C(O)Cc1cnc[nH]1 | inconclusive: 39.8 µM [inhibitor, single point] | –
CC(C)(C)NC(=S)N1CCn2cccc2C1c1cccnc1 (configuration not stated) | inconclusive: 39.8 µM [inhibitor, single point] | –
CC(=O)O[C@@H]1CN2CCC1CC2 | – | inactive: -10.9%
COc1cccc(N2C(=O)NC(=O)/C(=C\c3ccc([N+](=O)[O-])s3)C2=O)c1 | inconclusive: 22.4 µM [inhibitor, partial curve] | –
N#CSCC(=O)N1c2ccccc2CCc2ccccc21 | inconclusive: 17.8 µM [inhibitor, partial curve] | –
Nc1cc2nc3ccccc3nc2cc1N | inconclusive: 0.891 µM [inhibitor, single point] | –
Cc1ccc(NC(=O)Nc2cc3c(cc2N2CCCCC2)n(C)c(=O)n3C)cc1Cl | inconclusive: 7.08 µM [activator, partial curve] | –
CCOC(=O)C1=C(N)OC2=C(C(=O)CC(C)(C)C2)C12C(=O)Nc1ccccc12 (configuration not stated) | inconclusive: 39.8 µM [inhibitor, single point] | –
C[C@]12C=CC(=O)C=C1CC[C@@H]1C2CC[C@]2(C)OC(=O)CCC12 (some centres not stated) | inconclusive: 8.91 µM [inhibitor, single point] | –
CC(N)C(O)c1ccc(O)c(O)c1 (configuration not stated) | inconclusive: 10 µM [inhibitor, partial curve, poor fit] | –
C[C@](N)(CCP(=O)(O)O)C(=O)O | inconclusive: 14.1 µM [inhibitor, partial curve] | –
O=C(O)[C@@H]1CCN1 | – | inactive: -5.87%
CC(CO)NC(=O)C1C=C2c3cccc4[nH]cc(c34)CC2N(C)C1 (configuration not stated) | inconclusive: 6.31 µM [inhibitor, full curve, poor fit] | –
COc1ccc(CN2C(=O)NC(=O)/C(=C/c3ccc([N+](=O)[O-])o3)C2=O)cc1 | inconclusive: 25.1 µM [inhibitor, partial curve] | –
CCOC(=O)C(C)(CC)NC(=O)CSP(=S)(OCC)OCC (configuration not stated) | inconclusive: 39.8 µM [inhibitor, single point] | –
CCCCCCCCCCCCCCCC[n+]1ccccc1 | inconclusive: 0.251 µM [activator, single point] | –
